B1: N-terminal anti-IGF-1R bispecific antibody (pXWU136/pXWU118) (bispecific antibody, human IgG1, kappa)
heavy: DIQMTQSPLSLSASVGDRVTITCQASRDIRNYLNWYQQKPGKAPKLLIYDASSLQTGVPSRFGGSGSGTDFSFTIGSLQPEDEATYYCQQFDSLPHTFGQGTKLEIKGGGGSGGGGSGGGGSEVQLLESGGGLVQPGGSLRLSCAASGFTFSIYRMQWVRQAPGKGLEWVSGISPSGGTTWYADSVKGRFTISRDNSKNTLYLQMNSLRAEDTAVYYCARWSGGSGYAFDIWGQGTMVTVSSGGGGSGGGGSGGGGSGGGGSGGGGSEVQLLESGGGLVQPGGSLRLSCAASGFTFSNYPMYWVRQAPGKGLEWVSRISSSGGRTVYADSVKGRFTISRDNSKNTLYLQMNSLRAEDTAVYYCARDRWSRSAAEYGLGGYWGQGTLVTVSS[in this place human IgG1 constant region]
light: DIQMTQSPDSLAVSLGERATINCKSSQSVLYSSNNKNYLAWYQQKPGQPPKLLIYLASTRESGVPDRFSGSGSGTDFTLTISSLQAEDVAVYYCQQYYSTWTFGQGTKVEIKRTVAAPSVFIFPPSDEQLKSGTASVVCLLNNFYPREAKVQWKVDNALQSGNSQESVTEQDSKDSTYSLSSTLTLSKADYEKHKVYACEVTHQGLSSPVTKSFNRGEC
notes: G11 IgG1 with stabilized C06 scFv MJF045 (VL I83E) on the N-terminus of the heavy chain by a Gly/Ser linker; also called N-term; IGF-1R BsAb; N-IGF-1R bispecific antibody
B2: C-terminal anti-IGF-1R bispecific antibody (pXWU135/pXWU118) (bispecific antibody, human IgG1, kappa)
heavy: EVQLLESGGGLVQPGGSLRLSCAASGFTFSNYPMYWVRQAPGKGLEWVSRISSSGGRTVYADSVKGRFTISRDNSKNTLYLQMNSLRAEDTAVYYCARDRWSRSAAEYGLGGYWGQGTLVTVSS[in this place human IgG1 constant region]SGGGGSGGGGSGGGGSDIQMTQSPLSLSASVGDRVTITCQASRDIRNYLNWYQQKPGKAPKLLIYDASSLQTGVPSRFGGSGSGTDFSFTIGSLQPEDEATYYCQQFDSLPHTFGQGTKLEIKGGGGSGGGGSGGGGSEVQLLESGGGLVQPGGSLRLSCAASGFTFSIYRMQWVRQAPGKGLEWVSGISPSGGTTWYADSVKGRFTISRDNSKNTLYLQMNSLRAEDTAVYYCARWSGGSGYAFDIWGQGTMVTVSS
light: B1 light
notes: G11 IgG1 with stabilized C06 scFv MJF045 (VL I83E) on the C-terminus of the heavy chain by a Ser(Gly4Ser)3 linker; also called C-term; IGF-1R BsAb; C-IGF-1R bispecific antibody

Assays:
sIGF-1R(1-903) [1] = target: T1, sIGF-1R(1-903) (human, UniProt P08069 31-933); experiment: equilibrium solution-phase SPR, free sIGF-1R(1-903) read on G11 surface
T1 construct: also called soluble IGF-1R ectodomain

[2] = target: T2, human IGF-1R on H322M non-small cell lung cancer cells (human, UniProt P08069 31-1367); experiment: cell-based or functional assay
sIGF-1R(1-903) [3] = target: T1, sIGF-1R(1-903); experiment: ITC, 25 °C, average of two measurements
Protocol: (§1) Isothermal Titration Calorimetry (ITC). […] The reagents were co-dialyzed against PBS, pH 7.2. The protein solutions were adjusted to the concentrations listed above by dilution using PBS dialysate. […] The protein solutions were prepared as described above for the MAb binding experiments. All ITC experiments were performed on an ITC₂₀₀ microcalorimeter (MicroCal, LLC) at 25° C. […] IGF-1R bispecific antibodies. A four minute equilibration period was used between all injections with an initial delay of 60 seconds. Numerical integration of the data was performed using the ITC data analysis software supplied by MicroCal (Origin). ΔHA° (T) values were calculated based on the difference between the average heat liberated/absorbed during the binding phase of the injections and the average heat of dilution found once the receptor, IGF-1R, was saturated with MAb or BsAb.

[4] = target: T2, human IGF-1R on H322M non-small cell …; experiment: flow cytometry on H322M cells, anti-human Fab PE secondary (FIG. 55A)
Protocol: (§2) Cell lines were routinely cultured no greater than 20 passages. Flow cyotometric analysis of antibody binding to human cancer cells. Cells were lifted with cell dissociation buffer (Gibco catalog #13151-014), counted, washed and adjusted to 5×10⁶ cells/ml. Cells (2.5×10⁵; 50 uL) were added to each well of a 96-well round bottom plate (Costar #3799). Purified antibodies were tested at a starting concentration of 300 nM with serial half-log dilutions in FACS buffer. FACS buffer used throughout the assay was PBS (without Ca++/Mg++) containing 5% FBS. Samples were incubated on ice for 30 minutes, washed 3× with 200 uL FACS buffer and centrifuged at 1200 rpm for 3 minutes at 4° C. C2B8 (rituximab, IgG1) was used as a negative control. […] Samples were incubated for an additional 30 minutes on ice, shielded from light. Cells were washed as described above and resuspended in 100 μl FACS buffer containing propidium iodide (PI) for dead cell exclusion (BD Pharmingen, catalog# 51-66211E or 556463; use at 1:500 final in FACS buffer). Samples were run in triplicate using the FACSArray flow cytometer (Becton Dickinson) with 5000 live events collected per sample. Data analysis was performed using the GraphPad Prism version 5.0 software (GraphPad Software Inc., 11452 El Camino Real #215, San Diego, Calif. 92130). Results. […]

sIGF-1R(1-903) [5] = target: T1, sIGF-1R(1-903); experiment: equilibrium solution-phase SPR, free sIGF-1R(1-903) read on C06 surface
[6] = target: T2, human IGF-1R on H322M non-small cell …; experiment: flow cytometry on H322M cells, anti-human Fc PE secondary (FIG. 55B)
Protocol: as §2

sIGF-1R(1-903) [7] = target: T1, sIGF-1R(1-903); experiment: SEC with static light scattering
sIGF-1R(1-903) [8] = target: T1, sIGF-1R(1-903); experiment: ITC, 25 °C; footnote a: affinity too high for accurate measurement
Protocol: as §1

T1 sequence (P08069 31-933): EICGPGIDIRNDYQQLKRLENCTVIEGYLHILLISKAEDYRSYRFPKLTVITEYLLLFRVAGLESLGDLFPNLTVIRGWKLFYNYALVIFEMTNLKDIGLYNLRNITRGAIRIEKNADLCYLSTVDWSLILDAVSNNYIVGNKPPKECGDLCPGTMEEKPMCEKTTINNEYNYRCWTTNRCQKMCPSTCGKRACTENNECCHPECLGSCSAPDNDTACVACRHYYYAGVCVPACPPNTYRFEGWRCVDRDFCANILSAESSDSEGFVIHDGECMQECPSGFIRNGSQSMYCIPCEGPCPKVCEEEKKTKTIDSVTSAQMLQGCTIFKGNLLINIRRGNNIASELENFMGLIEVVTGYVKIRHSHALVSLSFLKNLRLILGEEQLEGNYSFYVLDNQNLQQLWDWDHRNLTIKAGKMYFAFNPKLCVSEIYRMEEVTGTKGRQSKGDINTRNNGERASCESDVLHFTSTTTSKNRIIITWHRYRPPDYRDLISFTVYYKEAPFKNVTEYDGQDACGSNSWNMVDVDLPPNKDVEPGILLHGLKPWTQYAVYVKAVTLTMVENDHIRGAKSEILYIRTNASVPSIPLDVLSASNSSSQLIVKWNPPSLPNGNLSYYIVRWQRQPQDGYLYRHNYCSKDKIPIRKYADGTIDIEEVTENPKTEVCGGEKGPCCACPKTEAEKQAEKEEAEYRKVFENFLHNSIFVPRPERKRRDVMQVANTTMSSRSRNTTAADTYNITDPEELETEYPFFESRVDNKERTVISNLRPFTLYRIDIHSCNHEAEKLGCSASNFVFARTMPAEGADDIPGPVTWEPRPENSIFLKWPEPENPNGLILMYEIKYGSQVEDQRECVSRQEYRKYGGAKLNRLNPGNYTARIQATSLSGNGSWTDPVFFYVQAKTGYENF

| Binder | Kd (sIGF-1R(1-903) [1]) [pM] | n (#G11 specific binding sites) (sIGF-1R(1-903) [1]) | reduction of surface IGF-1R after 24 hours (FACS, H322M cells) [2] [%] | -TΔS (sIGF-1R(1-903) [3]) [kcal/mol] | Kd (sIGF-1R(1-903) [3]) [pM] | ΔG (sIGF-1R(1-903) [3]) [kcal/mol] | ΔH° (sIGF-1R(1-903) [3]) [kcal/mol] | EC50 [4] [pM] | Kd (sIGF-1R(1-903) [5]) [pM] | n (#C06 specific binding sites) (sIGF-1R(1-903) [5]) | EC50 [6] [pM] | molecular weight of the complex (sIGF-1R(1-903) [7]) [MDa] | -TΔS (sIGF-1R(1-903) [8]) [kcal/mol] | Kd (sIGF-1R(1-903) [8]) [pM] | ΔG (sIGF-1R(1-903) [8]) [kcal/mol] |
| --- | --- | --- | --- | --- | --- | --- | --- | --- | --- | --- | --- | --- | --- | --- | --- |
| B1 | 700 | 1.5 | > 70 | 31.6 | 11000 | -10.9 | -42.5 | 470 | 200 | 1.5 | 480 | ~1.3 | – | – | – |
| B2 | 100 | 1.1 | > 70 | – | – | – | -53.9 | – | 30 | 1.1 | – | ~1 | 42.3 | 3000 | -11.6 |
